Tests used:
[1] = biological target: T1, Cytochrome P450 1A2 (Homo sapiens, UniProt P05177); conditions: bti-tn-5b1-4
T1 sequence (P05177 whole entry): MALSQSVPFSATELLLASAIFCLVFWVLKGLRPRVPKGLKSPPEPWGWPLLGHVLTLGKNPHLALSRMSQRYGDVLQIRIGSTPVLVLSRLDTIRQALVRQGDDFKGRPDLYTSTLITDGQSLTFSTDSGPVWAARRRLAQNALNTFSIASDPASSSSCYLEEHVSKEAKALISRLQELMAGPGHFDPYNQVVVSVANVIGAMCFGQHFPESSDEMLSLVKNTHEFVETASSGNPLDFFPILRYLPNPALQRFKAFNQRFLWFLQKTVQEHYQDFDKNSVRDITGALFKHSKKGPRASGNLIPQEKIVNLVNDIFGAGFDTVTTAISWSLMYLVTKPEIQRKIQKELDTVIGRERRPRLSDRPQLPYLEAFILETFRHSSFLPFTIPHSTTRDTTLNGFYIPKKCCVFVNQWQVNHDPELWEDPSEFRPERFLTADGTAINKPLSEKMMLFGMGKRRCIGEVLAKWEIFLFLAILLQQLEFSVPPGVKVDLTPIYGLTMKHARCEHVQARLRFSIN

[2] = biological target: T2, Cytochrome P450 2A6 (Homo sapiens, UniProt P11509); conditions: bti-tn-5b1-4
T2 sequence (P11509 whole entry): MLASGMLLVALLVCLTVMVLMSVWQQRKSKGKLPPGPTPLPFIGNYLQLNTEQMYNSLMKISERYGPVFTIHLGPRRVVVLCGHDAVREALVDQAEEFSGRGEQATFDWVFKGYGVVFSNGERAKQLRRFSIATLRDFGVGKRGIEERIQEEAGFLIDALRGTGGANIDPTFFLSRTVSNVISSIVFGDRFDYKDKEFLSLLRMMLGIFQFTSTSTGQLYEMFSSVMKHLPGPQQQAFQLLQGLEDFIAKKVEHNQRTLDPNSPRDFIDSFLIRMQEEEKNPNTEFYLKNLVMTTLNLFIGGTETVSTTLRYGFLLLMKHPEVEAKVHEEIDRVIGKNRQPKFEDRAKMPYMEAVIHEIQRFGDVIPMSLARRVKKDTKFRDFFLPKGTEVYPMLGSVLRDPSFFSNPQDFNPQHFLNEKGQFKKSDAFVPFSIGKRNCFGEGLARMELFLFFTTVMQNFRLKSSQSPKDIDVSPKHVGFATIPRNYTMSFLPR

[3] = biological target: Cytochrome P450 2C19 (Homo sapiens, UniProt P33261); conditions: bti-tn-5b1-4
Cytochrome P450 2C19, sequence (P33261 whole entry): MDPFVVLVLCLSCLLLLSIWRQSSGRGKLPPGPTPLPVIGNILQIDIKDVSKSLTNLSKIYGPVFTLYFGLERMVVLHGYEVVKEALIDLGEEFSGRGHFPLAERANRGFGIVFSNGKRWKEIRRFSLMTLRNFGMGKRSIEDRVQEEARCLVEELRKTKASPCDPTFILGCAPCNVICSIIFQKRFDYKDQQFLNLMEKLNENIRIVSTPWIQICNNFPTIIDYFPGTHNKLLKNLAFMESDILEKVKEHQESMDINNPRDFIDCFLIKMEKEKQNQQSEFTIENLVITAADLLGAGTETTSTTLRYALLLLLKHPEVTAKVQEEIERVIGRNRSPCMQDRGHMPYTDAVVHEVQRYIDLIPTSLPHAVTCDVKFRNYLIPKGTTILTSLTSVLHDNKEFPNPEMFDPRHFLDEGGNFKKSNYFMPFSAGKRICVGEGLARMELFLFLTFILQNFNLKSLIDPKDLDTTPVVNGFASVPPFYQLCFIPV

[4] = biological target: Cytochrome P450 2E1 (Homo sapiens, UniProt P05181); conditions: bti-tn-5b1-4
Cytochrome P450 2E1, sequence (P05181 whole entry): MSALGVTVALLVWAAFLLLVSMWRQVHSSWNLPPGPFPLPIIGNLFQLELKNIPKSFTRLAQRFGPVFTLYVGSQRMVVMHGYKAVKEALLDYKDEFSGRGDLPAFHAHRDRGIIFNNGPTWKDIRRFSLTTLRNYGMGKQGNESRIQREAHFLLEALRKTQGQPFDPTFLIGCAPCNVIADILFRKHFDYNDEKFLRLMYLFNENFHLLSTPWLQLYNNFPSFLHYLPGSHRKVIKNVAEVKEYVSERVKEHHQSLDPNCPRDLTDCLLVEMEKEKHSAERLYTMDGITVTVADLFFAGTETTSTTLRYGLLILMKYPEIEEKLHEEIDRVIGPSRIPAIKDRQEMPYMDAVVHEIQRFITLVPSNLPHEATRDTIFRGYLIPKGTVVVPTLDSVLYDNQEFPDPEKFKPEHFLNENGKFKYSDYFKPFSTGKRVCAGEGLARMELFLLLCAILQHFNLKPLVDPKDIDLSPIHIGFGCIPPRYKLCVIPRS

[5] = biological target: Voltage-gated inwardly rectifying potassium channel KCNH2 (Homo sapiens, UniProt Q12809); conditions: hek293
Voltage-gated inwardly rectifying potassium channel KCNH2, sequence (Q12809 whole entry): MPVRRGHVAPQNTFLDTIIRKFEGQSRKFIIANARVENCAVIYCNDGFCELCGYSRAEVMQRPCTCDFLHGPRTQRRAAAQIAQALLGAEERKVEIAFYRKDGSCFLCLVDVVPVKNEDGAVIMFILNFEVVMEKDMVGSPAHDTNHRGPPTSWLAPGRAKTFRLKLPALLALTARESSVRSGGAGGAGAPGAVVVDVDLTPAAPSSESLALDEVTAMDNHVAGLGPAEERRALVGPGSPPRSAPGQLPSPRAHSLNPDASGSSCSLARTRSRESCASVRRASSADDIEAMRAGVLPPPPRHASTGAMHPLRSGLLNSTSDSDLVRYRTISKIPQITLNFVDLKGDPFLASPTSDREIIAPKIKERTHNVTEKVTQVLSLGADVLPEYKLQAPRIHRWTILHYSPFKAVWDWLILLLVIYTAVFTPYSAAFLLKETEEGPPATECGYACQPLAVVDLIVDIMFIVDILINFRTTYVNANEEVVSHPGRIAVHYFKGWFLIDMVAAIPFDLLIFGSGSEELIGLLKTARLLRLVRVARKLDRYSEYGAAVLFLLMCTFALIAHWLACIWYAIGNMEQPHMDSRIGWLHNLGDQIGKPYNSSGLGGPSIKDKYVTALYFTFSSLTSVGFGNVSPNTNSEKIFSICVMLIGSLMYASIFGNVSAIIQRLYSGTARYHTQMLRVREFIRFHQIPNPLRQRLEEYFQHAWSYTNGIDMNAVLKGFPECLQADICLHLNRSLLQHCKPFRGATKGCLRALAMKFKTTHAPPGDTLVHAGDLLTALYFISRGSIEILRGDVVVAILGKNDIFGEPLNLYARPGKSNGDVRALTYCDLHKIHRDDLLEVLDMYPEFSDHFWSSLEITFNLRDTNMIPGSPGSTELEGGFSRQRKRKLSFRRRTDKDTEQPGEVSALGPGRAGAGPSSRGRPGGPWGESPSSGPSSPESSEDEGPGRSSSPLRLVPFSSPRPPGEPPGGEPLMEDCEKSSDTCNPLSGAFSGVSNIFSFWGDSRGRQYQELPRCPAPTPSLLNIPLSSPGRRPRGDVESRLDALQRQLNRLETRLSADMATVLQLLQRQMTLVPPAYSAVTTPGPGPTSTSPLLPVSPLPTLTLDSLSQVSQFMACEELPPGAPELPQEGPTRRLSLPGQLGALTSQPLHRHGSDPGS
Further: in other assays of this panel Not Active means under 50% inhibition at 10 µM.

CCC[C@@H]1C[C@@H](C(=O)N[C@@H]([C@H]2O[C@H](SC)[C@H](O)[C@@H](O)[C@H]2O)[C@H](C)Cl)N(C)C1 [CLINDAMYCIN]
Not Active: IC50 [1] | Ki [1] | IC50 [2] | Ki [2] | IC50 [3] | Ki [3] | IC50 [4] | Ki [4] | IC50 [5] | Ki [5]

From ChEMBL document CHEMBL1909046, “DrugMatrix in vitro pharmacology data”
